# Reference: PMC10726135
# The list shows a part of the results. At the low end of the ranking the order means little. The protein was read in a cell extract, so binding may be indirect.
# Target: T1, HNF4alpha8 (COS-7 nuclear extract) (UniProt P41235-5)
# T1 sequence: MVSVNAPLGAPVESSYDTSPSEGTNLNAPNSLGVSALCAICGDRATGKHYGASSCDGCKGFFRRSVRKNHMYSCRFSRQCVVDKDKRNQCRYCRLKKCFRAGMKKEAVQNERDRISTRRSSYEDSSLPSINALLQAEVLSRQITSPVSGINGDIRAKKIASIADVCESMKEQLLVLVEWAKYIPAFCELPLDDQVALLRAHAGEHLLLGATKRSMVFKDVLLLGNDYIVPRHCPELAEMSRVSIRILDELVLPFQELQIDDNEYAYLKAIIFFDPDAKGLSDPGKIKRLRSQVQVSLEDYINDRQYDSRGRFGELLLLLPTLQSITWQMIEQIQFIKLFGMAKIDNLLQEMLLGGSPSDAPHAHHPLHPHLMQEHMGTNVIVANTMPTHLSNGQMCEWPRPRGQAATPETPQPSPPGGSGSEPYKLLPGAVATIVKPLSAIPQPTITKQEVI
# Assay: protein-binding microarray
# Conditions: COS-7 nuclear extract on double-stranded Agilent 4x180k PBM; binding buffer, salt, pH and temperature not given; high values mean tight binding; double strand, one strand shown; sequences stand for … in …GCCTAGGGAGATTAGAGTATCGGTCGA
row,Sequence,binding signal (log2 normalized intensity)
1,CTCAAATCTAGCCAATGATGCTAGCCAATA,-1.36
2,AGGGATTGTTTAGGTACAAAGTCCATTGGA,8.46
3,CTTGACTTTGGACTTTCAAAAGTTAAGGTC,3.98
4,GAATTTTTCTGTATAAGACAACCTTTGTTC,5.33
5,TCAATGGCCCCAGTGCACGTGCATGAGGCC,-0.475
6,CACCTCCCTCAGAGCTCAGATGAACTTTGC,6.84
7,ACTTTGGACTTGGGACTTTCGAGTTAATGC,4.67
8,AAAGGCTGTCACACTTGCCCTTTGCCCTCA,8.84
9,GTTGCAGCATTGTTGGGATTAAGGAGAAGG,-1.27
10,CAGATAGATGGTCAGTGAACTGTGGTTGAC,1.58
11,ACAATTGTCCCCAAGATTGAGGCCAGCAAA,-0.647
12,TCATTGCCTCTGGGCTTTGATGGACATTGC,3.92
13,CTCAATCTTTGCCCTCTTGGTATCAGCTTT,2.54
14,CAAGGGGGTGGTGAAATGGGGGAAGGGCTG,-1.4
15,TAAGCCACAGACAAATATTTGCTGTTACTC,-1.26
16,AGTCTGTGGAGACACTGCCAGTGTCTCAGG,0.203
17,CCAGGGACTTTGAACACTTCTTTGTTACTT,2.75
18,ATCTGAGTGTCAAAAACAATACCAGGAGCT,-1.38
19,GTTCTAGCCCTGGTGAGTCAGTTCCCCTGC,1.42

row,Sequence,binding signal (log2 normalized intensity)
1,GCCACGGGAAAACCTGACTGCGCTCCCAGA,-1.42
2,CACAAATTGGAGAGCATCTTGGACTTGGGA,3.16
3,CCCAACCAAAAACAAAACTGGTCATACAGC,-1.32
4,CAAGATAAGATACGAAGGGTTTAAAGGGCA,3.36
5,GGGGATTCTTTCTAAAGTGACTTAGCAGGA,0.173
6,ACTTTTGCAATGTTTCCAAACCCCTCGGGA,1.59
7,AGTCAGGTACCTGCTTCTGCCCCAGTTAAC,3.08
8,AAGCATTTGGAGATTGCCACCTTGGTGAGA,0.128
9,TGTTTAACAGAGATTTGCAGCTCAAAGTGC,2.22
10,CCCAAGTAATAGCCGTTTCTGTCCAGAGTT,0.357
11,AGATGCTTTGAAGTGTAAAAGGATCATGGA,1.06
12,AATGATGTTTACATTCCAGAAAAGGCCTAA,-0.123
13,GCGCGTGTTCCCGTCCGTGCGGTCGGGCGC,-0.252
14,GTACAAAGCCCCATATTCATAGACTCTGCA,0.876
15,GTGTGAAGTAATCCCCAGTATAAACAACAC,1.77
16,CAGTTTGTTCTTGGGGCCCACAGAGTCCAG,2.79
17,AAACACCCACCTTGTTATCTTGTCTCTTCT,0.98
18,TTTCTGTCTAGGTGCCAGAATTGCTGCTCC,-0.986
19,ACCGATTGTGTTTTAGGCAAACATTTGCGC,0.525
